Measured values taken from PubChem BioAssay AID1347073 (National Center for Advancing Translational Sciences (NCATS), 2019).
Screen size: about 45,000 compounds; about 200 (0.44%) were called active. About 7% were inconclusive and are not listed. The call rests on the fitted dose curve; in most records, active means well fitted activation curve with a large enough effect; inconclusive means small, poorly fitted or top-dose-only effect; inactive means no such curve, though single readings can be large or run the other way. The list shows a part of the results.

assay: qHTS of TDP-43 Inhibitors: NCGC Sytravon Library Screen; details: yeast TDP-43 toxicity rescue, BacTiter-Glo growth, 24 h; series mostly up to 46.1 µM; growth rescue (activation): at the top concentration; further: 0% is about no effect; nearly all actives have a fitted effect of over 55% in size
How it was run: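 TDP-43-expressing yeast, pregrown in raffinose, seeded at OD600 0.02 in galactose medium with compound for 24 hr at 30 deg C. Growth read by BacTiter-Glo luminescence, so rescue of toxicity appears as activation.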

Structure (SMILES)	growth rescue (activation)
O=C(COC(=O)c1cccc(S(=O)(=O)N2CCc3ccccc32)c1)Nc1ncc(C(F)(F)F)cc1Cl	inactive: 9.22%
CC(Oc1ccccc1)C(=O)NN1Cc2ccccc2C1=N (stereo not drawn)	inactive: 3.64%
Cc1ccc(O)c(NC(=S)NC(=O)/C=C/c2ccco2)c1	inactive: 10.1%
O=C(COC(=O)Cc1ccsc1)Nc1ccc(Cl)cc1F	inactive: -2.86%
COc1ccccc1OCC(=O)Nc1ccc(S(=O)(=O)N2CCOCC2)cc1	inactive: 14.1%
O=C(CCNS(=O)(=O)c1ccc(Br)cc1)NC1CCCCC1	inactive: 4.63%
C=CCn1c(SCc2nc3ccccc3c(=O)[nH]2)nc2scc(C3CC3)c2c1=O	inactive: 25.6%
CCOC(=O)Cc1csc(NC(=O)CCSc2ccccc2)n1	inactive: 25.4%
Cc1ccc(NC(=O)NN(C)c2c(Cl)c(Cl)nn2C)cc1	inactive: 3.83%
CCCNC(=O)C1(C)CCN(C(=O)c2ccc3sccc3c2)C1 (stereo not drawn)	inactive: -0.984%
COc1ccc(NC(=O)COC(=O)c2cccn2C)cc1S(=O)(=O)N1CCCCC1	inactive: -2.11%
CCCOc1ccc(/C=C/c2[nH]c(=O)[nH]c(=O)c2[N+](=O)[O-])cc1OCC	inactive: -9.68%
CC(C)CNS(=O)(=O)c1ccc(CC(C)C)cc1	inactive: -11.1%
NC(=O)c1ccc(Nc2nc(C(N)c3ccccc3Cl)cs2)cc1 (stereo not drawn)	inactive: 10.7%
O=C(Cn1cnc2ccccc21)N/N=C/c1cccnc1	inactive: -12.1%
Cc1ccc(/C=N/Nc2ccc(Cl)c(C(=O)O)c2)s1	inactive: 11.6%
COc1ccccc1NS(=O)(=O)c1cccc(NC(=O)NC2CCCCC2)c1	inactive: 26.9%
N#Cc1ccccc1COC(=O)CCN=C1NS(=O)(=O)c2ccccc21	inactive: -16.3%
COc1cc(N2C(=O)c3ccccc3C2=O)c(Cl)cc1C(=O)OCC(=O)N1CCOCC1	inactive: -14.6%
Cc1ccc(NC(=O)CCC2CC(C)(C)OC2=O)cc1 (stereo not drawn)	inactive: 8.88%
Cc1cccc(NC(=O)CCNC(=O)c2ccco2)c1C	inactive: 4.53%
NC(=O)c1ccccc1OCC(=O)Nc1ccc2c(c1)OCCO2	inactive: -16.1%

Structure (SMILES)	growth rescue (activation)
CC1CCCN(CC(=O)NNC(=O)COc2ccc(Br)cc2)C1 (stereo not drawn)	inactive: 3.67%
CN(C)C(CNC(=O)c1ccc([N+](=O)[O-])cc1Cl)c1ccco1 (stereo not drawn)	inactive: 6.06%
Cn1c2ccccc2c2cc(/C=C(\NC(=O)c3ccccc3)C(=O)O)ccc21	inactive: -1.52%
CCc1nc2c(OCc3ccc(C(=O)N(C)C)cc3)cccn2c1N(C=O)Cc1ccccc1	inactive: 4.4%
NC(c1ccccc1)c1csc(Nc2ccc(C(=O)NCCCO)cn2)n1 (stereo not drawn)	inactive: 13.1%
COc1ccc(/C=C/C(=O)NCCCN2CCOCC2)cc1	inactive: 2.83%
O=C(NCCCN=C1NS(=O)(=O)c2ccccc21)c1ccccc1Cl	inactive: 3.57%
C/C(=N\n1cnnc1)c1ccccc1	inactive: 10.3%
Cc1cccc(/C=N/NC(=O)NC23CC4CC(CC(C4)C2)C3)n1	inactive: 10.5%
Cc1ccc(S(=O)(=O)N(C)CC(=O)NCC(=O)Nc2ccc(F)c(F)c2F)cc1	inactive: -5.9%
COc1ccc(N(C)C(=O)C2CCN(S(=O)(=O)c3cccc4nonc34)CC2)cc1	inactive: -4.07%
CC1(Oc2cccc(F)c2)CCN(Cc2ccc(-c3ccccc3)o2)C1 (stereo not drawn)	inactive: 5.98%
Cc1ccc(OCC(=O)N(Cc2ccccc2)C(C)C)c([N+](=O)[O-])n1	inactive: 20%
CS/C(=N\S(=O)(=O)c1cccs1)Nc1ccc(Cl)cc1	inactive: 1.71%
O=C(C(Cl)c1ccccc1)N1CCOCC1 (stereo not drawn)	inactive: 0.412%
O=C(Nc1ccccc1OC(F)F)C1CCCN1C(=O)c1cccs1 (stereo not drawn)	inactive: 2.77%
CCCc1nc2ccccc2c(C(=O)OCC(=O)Nc2c(C)n(C)n(-c3ccccc3)c2=O)c1CC	inactive: -14%
O=c1cc(O)c(-c2ccc(Cl)c(Cl)c2)c(Cl)[nH]1	inactive: -3.15%
Cc1csc(NC(=O)NCC2CCCC(CNC(=O)Nc3nc(C)cs3)C2)n1 (stereo not drawn)	inactive: 9.71%
CNc1nc2[nH]c(=O)c3c(c2s1)OC(N)=C(C#N)C3c1ccccc1 (stereo not drawn)	inactive: 8.87%
CCOC(=O)C1(Cc2ccc(OC)cc2)CCN(C(=O)c2cc3ccccc3[nH]2)CC1	inactive: 28%
Cc1cccc(NC(=O)c2ccc3c(c2)OCCO3)c1	inactive: 4.68%

Structure (SMILES)	growth rescue (activation)
CON(C)S(=O)(=O)c1cccc(C(=O)NC2CCSc3ccccc32)c1 (stereo not drawn)	inactive: 12.1%
COc1ccccc1C(=O)Nc1ccc(Oc2nnc(-c3ccc(C)cc3)c3ccccc23)cc1	inactive: -2.76%
CC(C)(C)NC(=O)c1cc([N+](=O)[O-])ccc1N1CCCCC1	inactive: 19.6%
O=C(CC12CC3CC(CC(C3)C1)C2)NC(Cc1ccccc1)C(=O)O (stereo not drawn)	inactive: -0.273%
CCCC(=O)Nc1ccc2c(c1)nc(CCN1CCN(c3ccccn3)CC1)n2C	inactive: -8.61%
COc1ccc2oc(=O)c(C(=O)C[n+]3cccc(C)c3)cc2c1	inactive: -8.33%
O=C(CSc1ncnc2[nH]ncc12)Nc1nc(-c2ccc(F)c(F)c2)cs1	inactive: 1.94%
COc1ccc(S(=O)(=O)N2CCCCCC2)cc1NC(=O)Cc1ccc(OC)c(OC)c1	inactive: 21.6%
O=C(NCc1ccc(Cl)c(Cl)c1)c1cc(C2CCCCN2C(=O)CCc2ccccc2)on1 (stereo not drawn)	inactive: 17.3%
Cc1c(Cl)cccc1NC(=O)CC1SC(=NCC2CCCO2)NC1=O (stereo not drawn)	inactive: 8.85%
CCOC(=O)C1=C(CS(=O)(=O)c2ccc(C)c(C)c2)NC(=O)NC1c1ccc(O)cc1 (stereo not drawn)	inactive: 6.23%
CC(=O)c1cccc(NC(=O)/C(=C\c2cccnc2)NC(=O)c2ccc(C)cc2)c1	inactive: 12.7%
Cn1c(SCC(=O)Nc2ccc(C(=O)O)cc2)nc2scc(-c3ccccc3Cl)c2c1=O	inactive: 19.1%
C=C(C)c1cccc(C(C)(C)NC(=O)Nc2nncs2)c1	inactive: -4.55%
C/C(CC(=O)Nc1ccc2c(c1)OCCO2)=N\NC(=O)Cc1ccccc1	inactive: -4.6%
Cc1ccc(NC(=O)C2CC2c2ccccc2)c([N+](=O)[O-])c1 (stereo not drawn)	inactive: 25.8%
COc1ccc(OC)c(NC(=O)c2nc(-c3ccccc3)oc2C)c1	inactive: 3%
CC(Sc1ccccc1)C(=O)NN=C1CCCCCC1 (stereo not drawn)	inactive: 10.4%
COc1cc(COC(=O)c2cnc(C)cn2)c(OC)cc1Br	inactive: 11.4%
O=S(=O)(c1ccc2nc(SCc3ccc(Cl)cc3)[nH]c2c1)N1CCOCC1	inactive: 20.1%
O=c1[nH]c(NNC(=S)NC2CCCCC2)nc2c1C1(CCCC1)Cc1ccccc1-2	inactive: 14.8%
OCCN1CCN(c2nc(-c3ccccc3O)nc3ccccc23)CC1	inactive: -19.1%

Structure (SMILES)	growth rescue (activation)
CCN(CC)S(=O)(=O)c1cccc(C(=O)N/N=C(\C)c2cccs2)c1	inactive: -4.44%
O=C(NCCCN1CCOCC1)c1cc(-c2ccco2)nc2ccccc12	inactive: 3.16%
CC(=O)c1cccc(NC(=O)C(OC(=O)c2cccs2)c2ccccc2)c1 (stereo not drawn)	inactive: -1.71%
CC12COC3(P(=O)(c4ccccc4)c4ccccc4)CC1CCC23CP(=O)(c1ccccc1)c1ccccc1 (stereo not drawn)	inactive: -20.3%
N#CCCN(C(=O)c1ccco1)c1ccccc1	inactive: 10.6%
Cc1cccc(NC(=S)N2CCN(c3cc(C)ccc3C)CC2)c1	inactive: 21.4%
CCCSc1nc2sc3c(c2c(=O)n1-c1ccc(OC)cc1)CCN(C)C3	inactive: -19.5%
CCC(C)(C)C1CCc2c(sc(NC(=O)c3ccoc3C)c2C(N)=O)C1 (stereo not drawn)	inactive: 21.2%
Cc1ccc2nc(COC(=O)CNC(=O)c3ccccc3)cn2c1	inactive: 22.4%
OCCNCc1c(OCc2ccc(Cl)cc2)ccc2ccccc12	inactive: -13.7%
Cc1ccccc1CN1CCN(C(=O)c2cc(-c3ccncc3)nc3ccccc23)CC1	inactive: 6.43%
O=C1CCCN1CCC1CCCCN1Cc1nc(COc2ccccc2)no1 (stereo not drawn)	inactive: 2.89%
COC(=O)c1ccc(C(=O)OC)c(NC(=O)C2CC(=O)N(C3CCCC3)C2)c1 (stereo not drawn)	inactive: 4.78%
NC(=O)c1cc(Cl)ccc1OCC(=O)NC1CC1	inactive: 1.58%
O=S(=O)(Nc1ccc(Cl)cn1)c1cnc(Cl)c(Br)c1	inactive: 0.261%
COc1cccc(-c2cnc3c(NC=O)cc(-c4cc(OC)c(OC)c(OC)c4)cn23)c1	inactive: 21.7%
O=C(O)C(F)(F)C(NCc1ccccc1)c1ccccc1 (stereo not drawn)	inactive: -7.2%
Cc1cc(Cl)ccc1C(O)c1ncc(-c2ccc(F)cc2)[nH]1 (stereo not drawn)	inactive: -1.38%
CCN1CCN(C(=O)CSc2nc3c(c(=O)n(C)c(=O)n3C)n2C)CC1	inactive: 6.33%
O=C(NC1CC1)C1CCN(S(=O)(=O)c2cc(Cl)ccc2Cl)CC1	inactive: -5.4%
COc1ccc(/C=N/NC(=O)c2cccnc2)cc1CSc1ccccn1	inactive: 6.51%
Cc1c(-c2nc(-c3ccc4c(c3)OCO4)no2)nnn1-c1ccc(Br)cc1F	inactive: 20.8%

Structure (SMILES)	growth rescue (activation)
Cc1noc(NC(=O)c2cccc(Cl)c2Cl)c1C#N	inactive: 16%
CCc1nc2ccc(C(=O)Nc3ccc(OC)c(OC)c3)cn2c1N(CC)Cc1cccc(Br)c1	inactive: 14.2%
CC(C)CC(NC(=O)C(NC(=O)OC(C)(C)C)C(C)C)C(=O)N1CCCC1C(N)=O (stereo not drawn)	inactive: 11%
CCC(=O)Nc1cccc(NC(=O)c2cccc([N+](=O)[O-])c2C)c1	inactive: -8.96%
COc1ccc(CNC(=O)C2=CCN(S(=O)(=O)c3ccc(C)cc3)CC2)cc1	inactive: 18.2%
Cc1ccc(C(NC(=O)Nc2ccccn2)C(Cl)(Cl)Cl)cc1F (stereo not drawn)	inactive: 21.1%
O=C(COc1ccc2ccccc2c1)Nc1cccnc1Cl	inactive: 17.5%
CC(C)c1ccccc1NC(=O)CN1C(=O)c2ccccc2C1=O	inactive: 9.4%
CCN(CC(=O)Nc1ccccc1OC)C(=O)CCc1ccccc1	inactive: 7.51%
Cc1csc(CNC(=O)C2CCC(=O)N(CCc3cccc(F)c3)C2)n1 (stereo not drawn)	inactive: 16.6%
Cc1ccc(S(=O)(=O)N2CCC(C(=O)N/N=C/c3cccn3C)CC2)cc1	inactive: 16.9%
COc1ccc(NC(=O)c2c(C)nn(Cc3ccccc3)c2C)cc1S(=O)(=O)N(C)C	inactive: 9.7%
O=C(COC(=O)C1CCCCC1)Nc1cccc(F)c1	inactive: 5.92%
O=C(O)CCCCCNc1ncnc2ccc(Br)cc12	inactive: -9.64%
CC(C)CCN(C(=O)c1ccccn1)c1c(N)n(Cc2ccccc2)c(=O)[nH]c1=O	inactive: -0.814%
Cc1ccc(C(=O)N/C(=C/c2ccco2)C(=O)O)cc1	inactive: 2.03%
Clc1ccccc1C1=CC(c2ccco2)n2nnnc2N1 (stereo not drawn)	inactive: 13.6%
Cc1ccc(NC(=O)CSc2nnnn2-c2cccnc2)c(C)c1	inactive: 15.5%
COC(=O)CSc1nc(N)nc(C)c1Cl	inactive: -1.16%
O=C(Nc1ccc(Cl)cc1)c1csc([C@@H]2C[C@H](O)[C@@H](CO)O2)n1	inactive: -2%
